Laboratory results: patent publication US6323219A, “Methods for treating immunomediated inflammatory disorders” (Ortho-McNeil Pharmaceutical, Inc., priority 1999, dated 2001)

What was measured:
[1] = system: MelanoDerm human epidermal equivalents; assay: Pigmentation of MelanoDerm epidermal equivalents (DOPA, H&E or F&M staining, image analysis); assay type: cell-based
S91 cells = assay: Pigmentation of choleratoxin-induced S91 cells; assay type: cell-based, mouse
tyrosinase = assay: RT-PCR gene expression in MelanoDerm equivalents, tyrosinase; assay type: cell-based, human; settings: increasing concentrations; FIG. 6A
trypsin = assay: RT-PCR trypsin expression in MelanoDerm equivalents; assay type: cell-based, human; settings: FIG. 6A, 6B
[2] = system: Co-cultures (no K-M contact); assay: Pigmentation of keratinocyte-melanocyte co-cultures without K-M contact; assay type: cell-based, human; settings: Table D; three days, DOPA stained on fourth day
[3] = system: human primary melanocytes; assay: Pigmentation of primary melanocyte cultures; assay type: cell-based
Yucatan swine skin = Yucatan swine skin pigmentation, topical, visual/chromameter/histology; settings: 10 μM, twice daily, five days per week, eight weeks
TRP-2 = assay: RT-PCR gene expression in MelanoDerm equivalents, TRP-2; assay type: cell-based, human; settings: increasing concentrations; FIG. 6A
[4] = system: guinea pig nipple pigmentation; assay: Guinea pig nipple pigmentation, topical, chromameter; assay type: in vivo; settings: for lightening effect, L* change: five days/week, 70:30 ethanol:propylene glycol
TRP-1 = assay: RT-PCR gene expression in MelanoDerm equivalents, TRP-1; assay type: cell-based, human; settings: increasing concentrations; FIG. 6A
[5] = Table D, three days, DOPA stained on fourth day

In the case of `CN[C@H](Cc1ccccc1)C(=O)N1CCC[C@H]1C(=O)N[C@@H](CCCNC(=N)N)C(=O)c1nc2ccccc2s1` [Compound I], the “effect on pigmentation, MelanoDerm (K-M contact)” value [1, 5] is reported as “lightening”, the “pigmentation, dose-response” value ([1]; increasing concentrations, SLIGRL 0, 10 and 50 μM, Compound I 0.1 μM to 1 μM, FIG. 4A) is reported as “decreasing pigmentation” and the UVB-induced pigmentation ([1]; pretreatment with UVB irradiation, FIG. 4B) is reported as “able to reduce this UVB-induced pigmentation”. For the same compound, the “level of pigmentation, choleratoxin-induced S91 cells” value (S91 cells) was “not affected”, the Tyrosinase expression (tyrosinase) was “not affected” and the trypsin expression (trypsin) was “increased expression of trypsin”. For the same compound, the “effect on pigmentation, Co-cultures (no K-M contact)” value [2] was “no effect”, the “effect on pigmentation, Melanocytes (no K)” value [3, 5] was “no effect” and the “level of pigmentation, human primary melanocytes” value ([3]; melanocytes alone) was “not affected”. For the same compound, the “effect on skin pigmentation” value (Yucatan swine skin) was “visible lightening effect”, the “TRP-2 mRNA level” value (TRP-2) was “dose-dependent increase” and the “lightening effect, L* change” value ([4]; 1 μM, twice daily, seven weeks) was “+9.6 L*”. The “chromameter measurement of pigmentation” value ([4]; 10 μM, twice daily, after six weeks, FIG. 7) was “lightening effect”, the “lightening effect, L* change” value ([4]; 10 μM, twice daily, seven weeks) was roughly 18 L* units and the signs of irritation ([4]; 1 and 10 μM, seven weeks, topical) was “No visible signs of irritation”. The “TRP-1 mRNA level” value (TRP-1) was “dose-dependent decrease”.
